Over roughly 33,000 sequences, “E-score (-0.5 to 0.5)” has its median near -0.035; the highest 2% begin near 0.35. This is one part of the list.
The sequences below were run against T1, Pdr3 (UniProt P33200) (assay: PBM E-score (8-mer binding enrichment) (E-score (-0.5 to 0.5)); higher = stronger / more preferred TF binding; most listed sequences are background and not binding sites). Conditions: protein concentration: 200 nM; construct: GST-full length.
T1 sequence: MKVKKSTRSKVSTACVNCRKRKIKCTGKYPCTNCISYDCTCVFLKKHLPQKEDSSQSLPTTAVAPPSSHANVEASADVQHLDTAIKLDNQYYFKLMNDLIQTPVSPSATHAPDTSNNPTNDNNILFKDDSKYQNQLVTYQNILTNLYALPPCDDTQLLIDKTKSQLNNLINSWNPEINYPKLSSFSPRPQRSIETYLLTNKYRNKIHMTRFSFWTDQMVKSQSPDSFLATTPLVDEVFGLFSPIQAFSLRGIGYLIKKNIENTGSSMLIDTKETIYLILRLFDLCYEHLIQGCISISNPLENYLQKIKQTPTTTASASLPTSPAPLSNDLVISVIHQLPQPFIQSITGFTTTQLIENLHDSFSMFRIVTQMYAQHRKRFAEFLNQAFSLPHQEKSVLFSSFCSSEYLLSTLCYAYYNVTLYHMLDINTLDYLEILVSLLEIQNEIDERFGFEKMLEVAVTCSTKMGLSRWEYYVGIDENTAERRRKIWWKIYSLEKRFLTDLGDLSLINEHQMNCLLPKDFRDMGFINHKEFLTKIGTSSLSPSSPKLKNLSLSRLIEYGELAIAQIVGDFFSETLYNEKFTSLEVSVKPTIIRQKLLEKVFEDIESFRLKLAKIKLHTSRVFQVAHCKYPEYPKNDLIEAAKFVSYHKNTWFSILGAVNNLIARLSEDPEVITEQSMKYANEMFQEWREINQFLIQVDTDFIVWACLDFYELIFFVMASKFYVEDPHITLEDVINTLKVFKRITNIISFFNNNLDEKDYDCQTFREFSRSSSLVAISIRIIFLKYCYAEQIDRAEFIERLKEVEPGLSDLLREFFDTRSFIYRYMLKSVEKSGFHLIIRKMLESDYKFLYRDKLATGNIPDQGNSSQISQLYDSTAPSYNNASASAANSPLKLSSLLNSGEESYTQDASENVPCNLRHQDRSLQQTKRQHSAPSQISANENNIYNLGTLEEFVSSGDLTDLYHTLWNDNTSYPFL
Procedure, shortened: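 For each ungapped eight-base word taken together with its reverse complement, the Universal PBM Analysis Suite assigned an E-score. Binding data came from GST-tagged yeast transcription factors, applied at about 100-200 nM, on universal all-10-mer Agilent arrays made double-stranded by primer extension. Fluorescent anti-GST marked bound protein, and scans were normalised with masliner.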

Sequence | PBM E-score
CCCAAGTC | -0.154
CACAGAAA | 0.0151
GACTATGA | -0.132
CGGCATAA | 0.16
CTCAGGGC | -0.00924
CTGCCTCC | 0.00485
TTAACCAA | -0.184
GAAACGCA | -0.0109
ACCTTGGC | -0.0857
CAAACATG | -0.204
CTTGGTTC | 0.148
ACGTCGTC | 0.0431
CACAATAC | 0.00132
AGCCAAAA | -0.171
AGTTCGTA | 0.0718
TGCGTCCA | -0.0375
CTTCCGCA | 0.307
ACATATCA | -0.00498
CTGGAAAG | -0.159
CGAGTGGC | -0.0326
CTATGGAA | -0.0147
ATACGTTA | -0.185
AACGATAG | -0.102
CTAGCCCC | -0.259
ATCAGAGC | 0.0756

Sequence | PBM E-score
GCACTAGA | -0.19
CCTCGTGC | 0.00448
CCTCGGAA | 0.442
CAAGCGAC | -0.00572
GCTTAGCA | -0.0836
ACTCATAG | -0.0938
GATGAACA | -0.00549
CTTGTTTC | -0.0483
ATCTTCAT | 0.0898
ACCCTCTA | -0.175
ACATGGAT | -0.0656
AACTGCGT | -0.252
CATCTTTA | -0.128
AAAATTAT | 0.179
ATAGTCCC | -0.00549
AACGACAC | -0.161
ATCCGGAA | 0.464
GCGCGGCA | 0.237
TACCGTAA | -0.0723
GCTATCGA | -0.0824
AAAGGGTC | 0.0018
AGGGCACG | -0.0543
GTAGTCCA | -0.225
CTCCTCAC | -0.154
CTCAATAA | -0.208

Sequence | PBM E-score
AGTCCAAT | 0.00894
TCAACACA | -0.0355
CTTGTAGA | -0.27
CGAACTAG | 0.0329
CAGTTTCA | -0.19
CGTCTATC | -0.139
GTACCCAC | 0.0632
CATAGTAC | -0.0189
GAACCCTC | -0.0665
GGTTCCGA | 0.476
CTTCCGCC | 0.336
ATCATTGA | -0.0198
GTATGACA | -0.109
ATGAGAGC | -0.0519
GAACTTAA | -0.0459
TTAACGAA | 0.0378
AGGCACGC | 0.049
GTTTGCTA | -0.0539
CCACTATC | -0.0446
GTAACATA | 0.0403
AGCAGTGC | -0.146
TTGCGCAA | -0.0494
TAGGCGGA | 0.258
CGGTGGGC | 0.0391
CAACCTTG | -0.0444

Sequence | PBM E-score
AATTTACT | -0.0427
TAGGGTCA | -0.214
ACATCGAC | -0.101
AACTTCGA | -0.0768
CTCAGATA | -0.00418
AGAACGTG | 0.0682
AATAACAT | 0.113
CTTATTGC | -0.174
AAGTATGT | -0.225
CAGGCGCA | -0.00764
AGGCGCAA | 0.0694
TTCCGCAA | 0.404
ATCCGAAG | 0.22
ATATCCCG | 0.357
CCCGGACG | 0.223
ATCACCAA | -0.112
AGACCGCC | 0.0729
CGCATTTA | 0.0284
CCCAGAGG | -0.225
ATCCCACC | 0.266
CACATGAA | -0.0897
ATAAGAAC | 0.139
TCTTCGAA | -0.191
CTAAGAAC | 0.165
AACTTATA | 0.0751

Sequence | PBM E-score
ATCAGCGG | 0.364
CAGCACGG | 0.23
ACGAGTAG | 0.0576
AGGCTCTC | -0.179
CCCTAGTC | -0.343
CCACCGTA | -0.103
GAAGGCTC | -0.105
CTGACGCA | -0.18
GATTAGCC | -0.0437
CAATGCCG | 0.263
TATTCTCA | -0.0987
AAATACGG | 0.0148
AATTTGCC | 0.0572
CTTCGACC | 0.054
ATACCAAT | 0.0683
CCTGAGCG | -0.147
TACGTCAA | -0.113
ATTCCTTA | -0.115
ACCATTAA | 0.197
AACCCAGA | -0.0664
AACTAATG | 0.0081
CTGTGCAA | -0.105
CCGTGACC | 0.123
AACGGTGT | -0.139
GCAGTGAA | 0.067

Sequence | PBM E-score
CAGTACTC | -0.146
CACACATA | -0.104
GTAGAGTA | -0.145
GGTCACAA | -0.169
GACTAATC | 0.131
GTCCCAAC | -0.15
CAAGGTGC | -0.00425
ACTAATTC | 0.07
AACCTGGC | -0.0888
CGAGATGA | 0.017
CCCCTGGC | -0.0768
CAGTGAAG | -0.214
ATCTTGGG | 0.00443
AGTGATTC | -0.0203
ACGGTAAT | 0.0577
ACATCAGA | -0.0935
AAAGGCCC | -0.153
AGCATTCA | -0.0565
GATGCATC | 0.222
ATCCATAA | 0.12
CATTTAAC | -0.26
CCCAAGGA | -0.147
CTCGCCAC | -0.0355
GTATCGAC | 0.102
ATTCACCG | 0.254

Sequence | PBM E-score
CAACGGGG | 0.0538
CCGTCAAG | 0.195
AACAATAA | 0.226
ATCACCAT | 0.0336
AAACGCCG | 0.149
AGTCTAAC | -0.166
ACCTCTGA | 0.045
GAGAGGGC | -0.206
GCAACACA | -0.0231
AACCATGT | -0.0629
ACCGAATG | -0.0335
AGACTGCT | -0.245
AGATCTGC | -0.142
GCGTTCCC | 0.139
AAACATCT | -0.119
GGTATCCA | 0.0326
AACTAGCA | 0.0576
GTTGGTCA | 0.0152
ACATCCTG | 0.0637
AGTAATCG | 0.071
AATCTGTA | -0.0192
ATCACATC | -0.0522

From the supplement of paper PMC3334620
